# Reference: the supplement of paper PMC8728848
# This is one part of the list.
# What was measured:
# Assay in all cases: glycan array binding signal (z-score within array); higher = stronger binding
# Conditions in all cases: glycan notation: IUPAC condensed, linker removed
# Gal(b1-4)Glc = target: Gal(b1-4)Glc
# In short: (§1)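 The Consortium for Functional Glycomics database supplied 3228 glycan arrays, of which those lacking an available protein sequence were dropped. The binding signal, a within-array Z-score, was averaged across arrays of the same protein sequence and across linkers. Negative scores can be read as non-binding.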
# Gal(b1-4)Glc6S = target: Gal(b1-4)Glc6S
# In short: as §1
# Gal(b1-4)GlcNAc = target: Gal(b1-4)GlcNAc
# In short: as §1
# [1] = target: Gal(b1-4)GlcNAc(a1-6)Gal(b1-4)GlcNAc
# In short: as §1
# Gal(b1-4)GlcNAc(b1-2)Man = target: Gal(b1-4)GlcNAc(b1-2)Man
# In short: as §1
# [2] = target: Gal(b1-4)GlcNAc(b1-2)Man(a1-3)Man(b1-4)GlcNAc(b1-4)GlcNAc
# In short: as §1
# [3] = target: Gal(b1-4)GlcNAc(b1-2)Man(a1-3)[Gal(b1-4)GlcNAc(b1-2)Man(a1-6)]Man(b1-4)GlcNAc(b1-4)GlcNAc
# In short: as §1
# [4] = target: Gal(b1-4)GlcNAc(b1-2)Man(a1-3)[Gal(b1-4)GlcNAc(b1-2)Man(a1-6)]Man(b1-4)GlcNAc(b1-4)[Fuc(a1-6)]GlcNAc
# In short: as §1
# [5] = target: Gal(b1-4)GlcNAc(b1-2)Man(a1-3)[Gal(b1-4)GlcNAc(b1-2)Man(a1-6)][Gal(b1-4)GlcNAc(b1-4)]Man(b1-4)GlcNAc(b1-4)[Fuc(a1-6)]GlcNAc
# In short: as §1
# [6] = target: Gal(b1-4)GlcNAc(b1-2)Man(a1-3)[Gal(b1-4)GlcNAc(b1-2)Man(a1-6)][GlcNAc(b1-4)]Man(b1-4)GlcNAc(b1-4)[Fuc(a1-6)]GlcNAc
# In short: as §1
# [7] = target: Gal(b1-4)GlcNAc(b1-2)Man(a1-3)[GlcNAc(b1-2)Man(a1-6)]Man(b1-4)GlcNAc(b1-4)GlcNAc
# In short: as §1
# [8] = target: Gal(b1-4)GlcNAc(b1-2)Man(a1-3)[GlcNAc(b1-4)][Gal(b1-4)GlcNAc(b1-2)Man(a1-6)]Man(b1-4)GlcNAc(b1-4)GlcNAc
# In short: as §1
# [9] = target: Gal(b1-4)GlcNAc(b1-2)Man(a1-3)[Man(a1-6)]Man(b1-4)GlcNAc(b1-4)GlcNAc
# In short: as §1
# [10] = target: Gal(b1-4)GlcNAc(b1-2)Man(a1-6)Man(b1-4)GlcNAc(b1-4)GlcNAc
# In short: as §1
# [11] = target: Gal(b1-4)GlcNAc(b1-2)Man(a1-6)[GlcNAc(b1-2)Man(a1-3)]Man(b1-4)GlcNAc(b1-4)GlcNAc
# In short: as §1
# [12] = target: Gal(b1-4)GlcNAc(b1-2)Man(a1-6)[Man(a1-3)]Man(b1-4)GlcNAc(b1-4)GlcNAc
# In short: as §1
# [13] = target: Gal(b1-4)GlcNAc(b1-2)[Gal(b1-4)GlcNAc(b1-4)]Man(a1-3)[Gal(b1-4)GlcNAc(b1-2)Man(a1-6)]Man(b1-4)GlcNAc(b1-4)GlcNAc
# In short: as §1
# [14] = target: Gal(b1-4)GlcNAc(b1-2)[Gal(b1-4)GlcNAc(b1-4)]Man(a1-3)[Gal(b1-4)GlcNAc(b1-2)[Gal(b1-4)GlcNAc(b1-6)]Man(a1-6)]Man(b1-4)GlcNAc(b1-4)GlcNAc
# In short: as §1
# [15] = target: Gal(b1-4)GlcNAc(b1-2)[Gal(b1-4)GlcNAc(b1-4)]Man(a1-3)[GlcNAc(b1-4)][Gal(b1-4)GlcNAc(b1-2)Man(a1-6)]Man(b1-4)GlcNAc(b1-4)GlcNAc
# In short: as §1
# [16] = target: Gal(b1-4)GlcNAc(b1-2)[Gal(b1-4)GlcNAc(b1-4)]Man(a1-3)[GlcNAc(b1-4)][Gal(b1-4)GlcNAc(b1-2)[Gal(b1-4)GlcNAc(b1-6)]Man(a1-6)]Man(b1-4)GlcNAc(b1-4)GlcNAc
# In short: as §1
# [17] = target: Gal(b1-4)GlcNAc(b1-2)[Gal(b1-4)GlcNAc(b1-6)]Man(a1-6)[Gal(b1-4)GlcNAc(b1-2)Man(a1-3)]Man(b1-4)GlcNAc(b1-4)GlcNAc
# In short: as §1
# [18] = target: Gal(b1-4)GlcNAc(b1-2)[Gal(b1-4)GlcNAc(b1-6)]Man(a1-6)[Gal(b1-4)GlcNAc(b1-2)Man(a1-3)]Man(b1-4)GlcNAc(b1-4)[Fuc(a1-6)]GlcNAc
# In short: as §1
binder,measurement,setting,value
HPL (Tachypleus tridentatus) (protein) MEDDCTCVTDRSLEGKLMKHPSTPAVYQILDGCRRLVPNPPTYNNIYKNWECIQSNILEKLLCKCDSLSNGAELIKGSGDTVYLLSNGVKRPIADPETFNGFCFDWNKIKTYSDIVINSLSTGPIIIIKHHHHHH,glycan array binding signal (z-score),Gal(b1-4)Glc,0.479
same,glycan array binding signal (z-score),Gal(b1-4)Glc6S,0.015
same,glycan array binding signal (z-score),Gal(b1-4)GlcNAc,-0.311
same,glycan array binding signal (z-score),[1],-0.342
same,glycan array binding signal (z-score),Gal(b1-4)GlcNAc(b1-2)Man,0.347
same,glycan array binding signal (z-score),[2],0.037
same,glycan array binding signal (z-score),[3],-0.199
same,glycan array binding signal (z-score),[4],0.264
same,glycan array binding signal (z-score),[5],-0.344
same,glycan array binding signal (z-score),[6],-0.355
same,glycan array binding signal (z-score),[7],-0.178
same,glycan array binding signal (z-score),[8],-0.083
same,glycan array binding signal (z-score),[9],0.429
same,glycan array binding signal (z-score),[10],0.251
same,glycan array binding signal (z-score),[11],0.08
same,glycan array binding signal (z-score),[12],-0.286
same,glycan array binding signal (z-score),[13],-0.141
same,glycan array binding signal (z-score),[14],-0.393
same,glycan array binding signal (z-score),[15],5.11
same,glycan array binding signal (z-score),[16],0.026
same,glycan array binding signal (z-score),[17],0.308
same,glycan array binding signal (z-score),[18],-0.141
